Test results published in PubChem BioAssay (NCATS).
The shares of active, inactive and inconclusive entries below differ from those in the screen. Calls follow the shape of the dose curve; as a rule, active = well fitted cell-killing curve with a large enough effect; inconclusive = small, poorly fitted or top-dose-only effect, or effect the other way; inactive = flat fitted curve, though single readings scatter. Where the call is inconclusive, the potency comes from a doubtful curve fit.

Tested on: CAOV3
Assay: Primary qHTS to identify gynecologic anti-cancer compounds using libraries of approved drugs and bioactive compounds (AID 1345084); also: nearly all actives have a fitted effect of over 55% in size
Conditions: Gynecologic cancer cell panel viability, ATPlite luminescence, 48 h; series mostly up to 57.5 µM
Summary of the method: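 Luminescence from the ATPlite ATP-monitoring reagent indicates viable cell number; lower signal means cytotoxicity. Cells received compound 16 h after seeding and were exposed for 48 h across five concentrations.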
Potency is read from the fitted curve at half-maximal effect; tags tell the direction and shape of the fitted curve.

| SMILES | Potency |
| --- | --- |
| CN(C)CCCN1c2ccccc2CCc2ccc(Cl)cc21 | inconclusive: 39.8 µM [cytotoxic, single point] |
| Cc1ccc2c(c1)c1c(n2CCc2ccc(C)nc2)CCN(C)C1 | inconclusive: 39.8 µM [cytotoxic, single point] |
| CCc1c2c(nc3ccc(OC(=O)N4CCC(N5CCCCC5)CC4)cc13)-c1cc3c(c(=O)n1C2)COC(=O)[C@]3(O)CC | inconclusive: 31.6 µM [cytotoxic, single point] |
| CCC(=O)O[C@]1(C(=O)SCF)[C@H](C)C[C@H]2[C@@H]3C[C@H](F)C4=CC(=O)C=C[C@]4(C)[C@@]3(F)[C@@H](O)C[C@@]21C | inconclusive: 35.5 µM [cytotoxic, single point] |
| c1nc2nc(Nc3ccc(N4CCOCC4)cc3)nc(NC3CCCCC3)c2[nH]1 | inconclusive: 6.31 µM [cytotoxic, partial curve, poor fit] |
| Cc1csc(-c2nnc(Nc3ccc(Oc4ncccc4-c4ccnc(N)n4)cc3)c3ccccc23)c1 | inconclusive: 0.1 µM |
